Experimental data reported in the supplement of paper PMC9446081.
In all, about 39,000 compounds went through this assay and about 220 (0.56%) showed activity. The list shows a part of the results.

system: Escherichia coli K-12 BW25113; test: relative growth (OD600 normalised to plate interquartile mean) (fraction); higher = less growth inhibition, active = 0.2 or less; details: 50 µM; LB; incubation time: overnight (16-24 h)
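Note: static incubation at 37 °C against the wild-type strain, values averaged over two biological replicates.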

| SMILES | relative growth |
| --- | --- |
| C[C@H]1CN([C@@H](C)CO)C(=O)c2cc(NS(=O)(=O)c3ccc(F)cc3)ccc2O[C@H]1CN(C)S(=O)(=O)c1ccc(F)cc1 | inactive: 1.01 |
| Cc1ccc(-c2cnc3c(c2)C(=O)N([C@@H](C)CO)C[C@@H](C)[C@H](CN(C)C(=O)Cc2cccnc2)O3)cc1 | inactive: 0.987 |
| CNCc1nc(C)no1 | inactive: 1.03 |
| O=C(C[C@H]1CC[C@@H]2[C@H](COC[C@H](O)CN2C(=O)c2ccccc2)O1)NCCCN1CCOCC1 | inactive: 0.99 |
| C[C@H](CO)N1C[C@H](C)[C@H](CN(C)Cc2ccc(Cl)c(Cl)c2)Oc2ccc(NC(=O)Nc3ccc4c(c3)OCO4)cc2C1=O | inactive: 1.01 |
| C=CC1CN2CCC1CC2C(O)c1ccnc2ccc(OC)cc12 (stereo not drawn) | inactive: 1.06 |
| O=C(/C=C/c1ccccc1)C1CC1 | inactive: 0.953 |
| Cc1ccc(S(=O)(=O)N(C)C[C@H]2OCCCC[C@H](C)Oc3ccc(NC(=O)c4ccccc4)cc3C(=O)N([C@@H](C)CO)C[C@@H]2C)cc1 | inactive: 1.02 |
| C[C@H](CO)N1C[C@H](C)[C@@H](CN(C)CC2CCCCC2)OCCCC[C@H](C)Oc2ccc(NC(=O)Cc3ccccc3)cc2C1=O | inactive: 1 |
| C[C@H]1CCCCO[C@@H](CN(C)C(=O)Nc2ccc(F)cc2)[C@@H](C)CN([C@@H](C)CO)C(=O)c2cc(NS(=O)(=O)c3ccc(Cl)cc3)ccc2O1 | inactive: 1.01 |
| C[C@H](C(=O)N(C)C[C@H]1OCc2ccccc2-c2c(n(C)c3ccccc23)C(=O)N([C@@H](C)CO)C[C@H]1C)c1ccccc1 | inactive: 1.02 |
| C[C@H](CO)N1C[C@H](C)[C@H](CN(C)S(=O)(=O)c2ccc(-n3cccn3)cc2)OCc2cn(nn2)CCCC1=O | inactive: 0.99 |
| C[C@@H]1CN([C@H](C)CO)C(=O)c2cc(NC(=O)C3CCCCC3)ccc2O[C@@H]1CN(C)S(=O)(=O)c1cn(C)cn1 | inactive: 0.982 |
| C[C@@H]1CCCCO[C@@H](CN(C)Cc2ccc3c(c2)OCO3)[C@@H](C)CN([C@@H](C)CO)C(=O)c2cc(NC(=O)CCC(F)(F)F)ccc2O1 | inactive: 1.02 |
| C[C@@H]1CCCCO[C@@H](CN(C)C(=O)Nc2ccc(F)cc2)[C@@H](C)CN([C@@H](C)CO)C(=O)c2cc(NC(=O)Nc3cccc4ccccc34)ccc2O1 | inactive: 1.05 |
| C[C@@H]1CCCCO[C@@H](CN(C)Cc2ccc(F)cc2)[C@H](C)CN([C@@H](C)CO)C(=O)c2cc(NC(=O)Nc3ccccc3)ccc2O1 | inactive: 1.03 |
| CN(C)c1ccc2c(=O)[nH][nH]c(=O)c2c1 | inactive: 0.998 |
| C[C@H]1CN([C@@H](C)CO)C(=O)c2cc(NS(=O)(=O)c3ccc(Cl)cc3)ccc2O[C@H]1CN(C)C(=O)Nc1ccc(C(F)(F)F)cc1 | inactive: 0.973 |
| C[C@@H]1CN([C@@H](C)CO)C(=O)c2cc(NC(=O)c3ccccc3)ccc2O[C@@H](C)CCCCO[C@H]1CN(C)C(=O)Nc1cccc2ccccc12 | inactive: 1.02 |
| C=CC[C@H](CC(=O)NCCO)C(=O)N[C@H](COC(=O)[C@H](CC=C)CC(=O)OC(C)(C)C)Cc1c[nH]c2ccccc12 | inactive: 0.996 |
| O=C(O)C12C3CCC4C5C3C1C5(C(=O)O)C42 (stereo not drawn) | inactive: 0.991 |

| SMILES | relative growth |
| --- | --- |
| CCCNC(=O)N[C@H]1C=C[C@@H](CC(=O)N2CCN(C)CC2)O[C@H]1CO | inactive: 1.03 |
| COc1ccc(NC(=O)N(C)C[C@H]2Oc3c(NC(=O)CCCCCC(=O)Nc4ccccc4N)cccc3C(=O)N([C@@H](C)CO)C[C@@H]2C)cc1 | inactive: 0.931 |
| C[C@H]1[C@@H](O)[C@@H](C)\C=C/C=C\C=C/C=C\C=C/C=C\C=C/[C@@H](O[C@H]2O[C@H](C)[C@@H](O)[C@H](N)[C@@H]2O)C[C@H]2O[C@](O)(C[C@@H](O)C[C@@H](O)[C@@H](O)CC[C@@H](O)C[C@@H](O)CC(=O)O[C@H]1C)C[C@@H](O)[C@@H]2C(=O)O | inactive: 1 |
| Cc1noc(C)c1S(=O)(=O)N(C)C[C@H]1Oc2ccc(NS(C)(=O)=O)cc2CC(=O)N([C@@H](C)CO)C[C@H]1C | inactive: 1.03 |
| CCC(=O)N1CCO[C@]2(COCCN(CC(=O)NC)C2)C1 | inactive: 0.997 |
| Cc1noc(C)c1NC(=O)N(C)C[C@H]1Oc2ccc(NC(=O)CCN3CCOCC3)cc2C(=O)N([C@H](C)CO)C[C@@H]1C | inactive: 0.968 |
| C[C@H]1CCCCO[C@H](CN(C)C(=O)NC2CCCCC2)[C@@H](C)CN([C@@H](C)CO)C(=O)c2cc(NC(=O)NC3CCCCC3)ccc2O1 | inactive: 1.02 |
| C[C@@H]1CN([C@@H](C)CO)C(=O)Cc2cc(NC(=O)CCN3CCOCC3)ccc2O[C@@H]1CN(C)CC1CC1 | inactive: 0.995 |
| C[C@H](O)C#Cc1ccc2c(c1)O[C@@H](CN(C)C)[C@H](C)CN([C@H](C)CO)S2(=O)=O | inactive: 1.03 |
| Cc1ccc(S(=O)(=O)N(C)C[C@H]2Oc3cc(C#Cc4ccccc4)ccc3S(=O)(=O)N([C@H](C)CO)C[C@@H]2C)cc1 | inactive: 1.02 |
| CCn1cc(C(=O)O)c(=O)c2cnc(N3CCNCC3)nc21 | active: 0.05 |
| C[C@@H]1CN([C@@H](C)CO)C(=O)c2cc(NC(=O)Cc3ccccc3)ccc2O[C@@H]1CN(C)S(=O)(=O)c1cccs1 | inactive: 1.02 |
| CCOC(=O)CNc1nnc(N)[nH]1 | inactive: 1.01 |
| C=C[C@@H]1C[C@]1(NC(=O)[C@@H]1C[C@@H]2CN1C(=O)[C@H](C(C)(C)C)NC(=O)O[C@@H]1C[C@H]1CCCCCc1nc3ccc(OC)cc3nc1O2)C(=O)NS(=O)(=O)C1CC1 | inactive: 0.967 |
| COc1ccc(/C=C/CN(C/C=C/c2ccc(OC)cc2)CCCCNS(=O)(=O)c2cccc3cnccc23)cc1 | inactive: 0.99 |
| C[C@@H]1CN([C@@H](C)CO)C(=O)c2cccc(NC(=O)c3nc4ccccc4s3)c2O[C@H]1CN(C)Cc1ccc(-c2ccccc2)cc1 | inactive: 1.02 |
| C[C@@H]1CN([C@@H](C)CO)C(=O)c2cccc(NC(=O)Nc3ccc(F)cc3)c2O[C@@H]1CN(C)S(C)(=O)=O | inactive: 0.822 |
| CCc1ccccc1C(=O)N1CCC[C@@H](Cn2cc(C(C)(C)N)nn2)C1 | inactive: 1.01 |
| C[C@@H]1CN([C@@H](C)CO)C(=O)c2cc(NC(=O)C3CC3)ccc2O[C@H]1CN(C)S(=O)(=O)c1cccs1 | inactive: 1.01 |
| CC(C)=CCC/C(C)=C/CC1=C(C)C(=O)c2ccccc2C1=O | inactive: 0.911 |
| NCCS(=O)(=O)O | inactive: 1.1 |

| SMILES | relative growth |
| --- | --- |
| Cc1ccc(S(=O)(=O)Nc2cccc3c2O[C@@H](CN(C)S(=O)(=O)c2cccs2)[C@H](C)CN([C@H](C)CO)C3=O)cc1 | inactive: 0.999 |
| O=C1NC(=O)[C@H]2CC[C@H]2N1 | inactive: 0.965 |
| CN(C)CCCNC(=O)C[C@H]1CC[C@@H]2[C@@H](COc3ccc(NC(=O)c4ccc5c(c4)OCO5)cc3C(=O)N2C)O1 | inactive: 0.933 |
| COc1ccccc1NC(=O)N(C)C[C@@H]1Oc2ncc(C#CCN(C)C)cc2C(=O)N([C@@H](C)CO)C[C@H]1C | inactive: 0.991 |
| CCCNC(=O)Nc1ccc2c(c1)C(=O)N(C)C[C@@H](OC)[C@@H](C)CN(Cc1ccc(-c3ccccn3)cc1)[C@H](C)CO2 | inactive: 0.98 |
| CCOC(=O)[C@H]1C/C=C/C[C@H](C(=O)OCC)C(=O)O[C@H]2[C@@H](OC)O[C@H](CO)[C@@H](OC(=O)Nc3ccccc3)[C@@H]2OC1=O | inactive: 1.01 |
| C[C@H]1CCCCO[C@@H](CN(C)C(=O)c2ccncc2)[C@@H](C)CN([C@@H](C)CO)C(=O)c2cc(NC(=O)NC3CCCCC3)ccc2O1 | inactive: 0.997 |
| C[C@@H]1CCCCO[C@@H](CN(C)C(=O)Nc2ccc(F)cc2)[C@@H](C)CN([C@H](C)CO)C(=O)c2cc(NC(=O)CCC(F)(F)F)ccc2O1 | inactive: 1.03 |
| Cc1noc(C)c1S(=O)(=O)Nc1ccc2c(c1)C(=O)N([C@@H](C)CO)C[C@@H](C)[C@@H](CN(C)S(=O)(=O)c1cccs1)O2 | inactive: 1.01 |
| Nc1cccc2c(=O)[nH][nH]c(=O)c12 | inactive: 1.01 |
| O=C(NCCN1CCOCC1)c1ccc(Cl)c(S(=O)(=O)N2CCOCC2)c1 | inactive: 1.01 |
| Cc1noc(C)c1S(=O)(=O)Nc1ccc2c(c1)C(=O)N([C@@H](C)CO)C[C@H](C)[C@H](CN(C)Cc1ccc(Cl)c(Cl)c1)OCCCC[C@@H](C)O2 | inactive: 0.976 |
| COC(=O)CNc1nc(OC)nc(N(C)C)n1 | inactive: 0.909 |
| C[C@H]1CN([C@@H](C)CO)C(=O)CCCn2cc(nn2)CO[C@H]1CN(C)Cc1ccc2c(c1)OCCN2C | inactive: 0.982 |
| Cn1cnc(S(=O)(=O)N[C@H]2CC[C@H](CC(=O)Nc3ccccc3)O[C@@H]2CO)c1 | inactive: 1 |
| C[C@H]1CN([C@@H](C)CO)C(=O)c2cccc(NC(=O)Nc3ccc(C(F)(F)F)cc3)c2O[C@@H]1CN(C)S(=O)(=O)c1ccc(Cl)cc1 | inactive: 0.786 |
| COC(=O)[C@@H](NC(=O)Cn1cc(CCC(=O)NO)nn1)c1ccccc1 | inactive: 0.982 |
| C[C@H](CO)N1C[C@H](C)[C@H](CN(C)Cc2ccccc2)Oc2c(NC(=O)c3ccc(-c4nccs4)cc3)cccc2C1=O | inactive: 1.03 |
| Oc1c(I)cc(I)c2cccnc12 | inactive: 1.04 |
| C[C@@H]1CCCCO[C@@H](CN(C)Cc2ccc(C(F)(F)F)cc2)[C@H](C)CN([C@@H](C)CO)C(=O)c2cc(NS(=O)(=O)c3ccccc3)ccc2O1 | inactive: 1.01 |
| CC(C)N(C)C(=O)c1cccc(NC(=O)c2ccncc2)c1OCCCN(C)Cc1ccc(Oc2ccccc2)cc1 | inactive: 1.04 |
